In general, inhibition refers to the relative decrease from the control value, in per cent.

Structures are written as SMILES. Where “and” joins values, the source holds several entries; their conditions need not be identical. Equal values may be shown once. Hit rate of the full screen: of about 340,000 compounds, about 6,900 (2%) were called active. Cut-off read from the data, not from the text of the source: active = inhibition above about 30%; inactive = below that, where a call was filed. The entries are a selection whose mix differs from that of the whole data set. Where no call is shown, the source filed none.

UniProt P14416, sequence (P14416 whole entry, looked up): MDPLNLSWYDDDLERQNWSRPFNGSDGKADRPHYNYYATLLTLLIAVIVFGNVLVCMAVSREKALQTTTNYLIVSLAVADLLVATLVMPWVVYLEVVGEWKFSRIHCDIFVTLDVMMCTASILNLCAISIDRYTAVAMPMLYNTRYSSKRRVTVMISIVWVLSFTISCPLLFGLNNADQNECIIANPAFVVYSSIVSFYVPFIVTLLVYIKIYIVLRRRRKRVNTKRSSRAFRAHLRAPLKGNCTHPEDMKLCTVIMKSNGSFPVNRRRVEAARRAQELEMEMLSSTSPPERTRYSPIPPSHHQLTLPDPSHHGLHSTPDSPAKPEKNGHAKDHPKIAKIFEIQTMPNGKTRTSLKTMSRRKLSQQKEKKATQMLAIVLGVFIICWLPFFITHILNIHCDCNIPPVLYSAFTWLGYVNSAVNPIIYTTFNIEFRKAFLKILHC

The target of the experiment is D(2) dopamine receptor (Homo sapiens) (UniProt P14416). Briefly: HTS Assay for Allosteric Antagonists of the Human D2 Dopamine Receptor: Primary Screen for Antagonists. Note: 0% is about no effect. The settings on record: HEK293 TREx D2 cells, calcium flux, dopamine EC80; at 10 µM; stronger effect = higher value. A digest of the protocol:
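Inhibition of EC80 dopamine-driven calcium flux, recorded kinetically, defines activity here; cells are a tetracycline-induced HEK293 T-REx line expressing force-coupled D2.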
On to `CCc1cccc(NC(=O)CN2C(=O)CN=C(c3ccccc3F)c3cc(Cl)ccc32)c1`, for which the inhibition amounted to 9.81%.

As to `CCN(CC)CCCC(C)N=C(c1ccccc1)c1c(O)n(C)c(=O)n(C)c1=O` (stereo not drawn), the inhibition is active: 68.9%.

`CCOc1ccc(C2C(C#N)=C(N)Oc3c2c(=O)oc2ccccc32)cc1` (stereo not drawn): the inhibition was active: 30.7%.

Turning to `COc1ccccc1N1CCN(CCc2ccccc2)CC1`, the inhibition is active: 73.5%.

In the case of `N#Cc1cc2c(nc1SCC(=O)Nc1ccc(C(F)(F)F)cc1)C1CCN2CC1`, the inhibition is -7.35%.

As to `COc1ccc(-n2c(/C=C\c3ccccc3F)nc3ccccc3c2=O)c(OC)c1`, the inhibition is -7.41%.

`CC(C)c1ccc(OCC(=O)N2CCN(CCc3ccncc3)CC2)cc1`: the inhibition worked out at 7.89%.

Turning to `CN1CCN(c2ccc(N)cc2Cl)CC1`, the inhibition was active: 45.9%.

Consider `CCOc1ccc(CN(CCc2ccc3c(c2)OCO3)Cc2cc(OC)ccc2O)cc1`, for which the inhibition stood at 11.8%.

On to `Cc1ccc(NC(=O)N(Cc2ccc3c(c2)OCO3)C2CCN(Cc3ccccc3)CC2)cc1C`, for which the inhibition was -22.4%.

Consider `CN1CCN(c2ccc([N+](=O)[O-])c(NCc3ccco3)c2)CC1`, for which the inhibition is active: 52.7%.

On to `Cc1cc(OCC(=O)N2CCN(CCc3ccncc3)CC2)ccc1Cl`, for which the inhibition was -1.04%.

For `COc1ccc(OCC(=O)N2CCN(Cc3cccc(OC)c3OC)CC2)cc1`, the inhibition was found to be 8.09%.

Take `CC(C)(C)c1ccc(C(=O)C2CCCN(C3CCC3)C2)cc1` (stereo not drawn): the inhibition is active: 37.5%.

For the molecule `Cc1cc(C)cc(OCC(=O)Nc2ccc(Cl)cc2C(=O)c2ccccc2)c1`, the inhibition is -1.47%.

Turning to `NC(=O)c1ccc(OCCC(O)N2CC=C(c3ccc(F)cc3)CC2)cc1` (stereo not drawn), the inhibition was active: 64.6%.

Regarding `Clc1cccc(N2CCNCC2)c1`, the inhibition is active: 35%.

For `c1ccc(CCN2CCC(N3CCN(c4ccccc4)CC3)CC2)cc1`, the inhibition is active: 71.8%.

Turning to `CCOC(=O)c1ccc(NC(=O)c2sc3nc4c(cc3c2N)N2CCC4CC2)cc1`, the inhibition is 0.485%.

With `CC(C)OCC(O)CN1CC2C[C@@H](C1)Cn1c2cccc1=O` (stereo partly drawn), the inhibition is active: 41.7%.

For the molecule `O=S1(=O)N(Cc2ccccc2)CCCN1Cc1ccc(F)cc1Cl`, the inhibition is -0.448%.

On to `C1=C(c2c[nH]c3ccccc23)CCNC1`, for which the inhibition is active: 41.9%.

For `CCOc1ccc(CN2CCCC(C(=O)c3ccccc3OC)C2)cc1` (stereo not drawn), the inhibition was active: 71.8%.

For `Cc1ccc(OCC(=O)Nc2ccc(Cl)cc2C(=O)c2ccccc2)cc1`, the inhibition was -4.61%.

As for `Oc1cc2c(cc1CN1CCN(c3ccccc3)CC1)CCC2`, the inhibition was active: 72.9%.

As for `CC(CCc1ccccc1)NC(C)C(O)c1ccc(O)cc1` (stereo not drawn), the inhibition was active: 63.8%.

With `CCN1C(=O)CC(c2cccnc2)=Nc2ccccc21`, the inhibition is active: 31.4%.

Regarding `O=C(Nc1ccc(Br)cc1C(=O)c1ccccc1)c1ccccc1`, the inhibition was found to be 3.85%.

In the case of `COC(=O)c1ccc(NC(=O)c2cccn(Cc3ccccc3C)c2=O)cc1`, the inhibition stood at 9.22%.

In the case of `COc1ccccc1N1CCN(Cc2cccc(OC)c2O)CC1`, the inhibition is active: 81.3%.

Take `CCOc1ccc(CN(CCc2ccc3c(c2)OCO3)Cc2cccc(C)c2)cc1`: the inhibition is -13.8%.

On to `CCN(CC)C(=O)c1ccc(NC(=O)CCn2nc(-c3ccc(C)cc3)c3ccccc3c2=O)cc1`, for which the inhibition is 2.3%.

As for `Cc1cccc(C2CC(=O)Oc3c2c(=O)oc2ccccc32)c1` (stereo not drawn), the inhibition was -14%.

For the molecule `CCCC(CCC)C(=O)OC[N+](C)(C)CCOC(=O)C(O)(c1ccccc1)C1CCCC1` (stereo not drawn), the inhibition was active: 39.1%.

As to `CCc1ccc(-c2nn(Cc3ccccc3)cc2C=O)cc1`, the inhibition is active: 35%.

As to `Oc1ccc(Cl)cc1CN1CCN(Cc2ccccc2)CC1`, the inhibition was active: 31.9%.

For the molecule `CCCC1=Nc2cc(C(=O)NC3CCC(C)CC3)ccc2Sc2ccccc21` (stereo not drawn), the inhibition was -1.37%.

Consider `Fc1ccccc1CCNCc1cccc2ccccc12`, for which the inhibition was active: 31.1%.

Turning to `Cc1cc(NC(=O)c2cccn(Cc3ccccc3)c2=O)no1`, the inhibition was -25.9%.

For the molecule `Cc1cccc2sc(NC(=O)c3cccn(Cc4ccccc4)c3=O)nc12`, the inhibition is -12.6%.

For the molecule `Nc1c(C(=O)Nc2cccc(Br)c2)sc2nc3c(cc12)N1CCC3CC1`, the inhibition was determined as 8.44%.

As to `Cc1ccc(C2CC3CCC(C2)N3Cc2ccccc2F)cc1` (stereo not drawn), the inhibition was active: 67.8%.

Turning to `CCOc1ccc(CN(CCc2ccc3c(c2)OCO3)Cc2ccc(CC)cc2)cc1`, the inhibition was 6%.

Take `Cc1oc2cc3oc(=O)c(CCC(=O)N4CCCCC4)c(C)c3cc2c1C`: the inhibition is 12.3%.

Turning to `CCN(CC)C(=O)N[C@H]1C[C@@H]2c3cccc4[nH]cc(c34)C[C@H]2N(C)C1`, the inhibition is active: 83.3%.

In the case of `CN1/C(=C\C=C\C2=[N+](C)c3ccc4ccccc4c3C2(C)C)C(C)(C)c2ccccc21`, the inhibition is active: 39%.

With `COc1ccc(CN2CCN(Cc3ccccc3F)CC2)cc1`, the inhibition was active: 30.7%.

Consider `COc1ccc2c(c1OC)CN1CCc3cc4c(cc3C1C2)OCO4` (stereo not drawn), for which the inhibition was active: 86.2%.

Take `CC(=O)O[C@@]12CO[C@@H]1C[C@H](OC1OCC(O)C(O)C1O)[C@@]1(C)C(=O)[C@H](O)C3=C(C)[C@@H](OC(=O)[C@H](O)[C@@H](NC(=O)c4ccccc4)c4ccccc4)C[C@@](O)([C@@H](OC(=O)c4ccccc4)C12)C3(C)C` (stereo partly drawn): the inhibition is active: 37.5%.

For the molecule `Cc1ccccc1-n1nc(C)c2c1NC(=O)CSC2c1ccccc1C(F)(F)F` (stereo not drawn), the inhibition amounted to 5.79%.

For `CC(C)[C@@]1(NC(=O)[C@@H]2C=C3c4cccc5[nH]cc(c45)C[C@H]3N(C)C2)O[C@@]2(O)[C@@H]3CCCN3C(=O)[C@H](Cc3ccccc3)N2C1=O`, the inhibition was active: 80.2%.

As for `CC[C@@H](CO)NC(=O)[C@@H]1C=C2c3cccc4c3c(cn4C)C[C@H]2N(C)C1`, the inhibition is active: 32.4% and active: 62.6% and active: 47.5%.

For `CCN1CCN(c2ccc(N)c(C)c2)CC1`, the inhibition was active: 49.4%.

Turning to `COc1ccccc1CN1CCN(C(=O)COc2cccc(C)c2)CC1`, the inhibition turned out to be 16.1%.

For `COc1ccc(NC(=O)CN2C(=O)CN=C(c3ccccc3)c3ccccc32)c(OC)c1`, the inhibition amounted to 5.54%.

On to `Cc1ccc(C(C)C)c(OCC#CCN2CCCC2)c1`, for which the inhibition is active: 34.7%.

`Fc1ccc(N2CCN(Cc3ccc4c(c3)OCO4)CC2)cc1`: the inhibition was active: 65.6%.

For `COC(=O)C1=C(c2ccc(C(C)=O)cc2)C[C@@H]2CC[C@H]1N2C(=O)NC(C)C`, the inhibition was active: 52.2%.

Take `O=C(COc1ccccc1Cl)N1CCN(CCc2ccccn2)CC1`: the inhibition was determined as 24.6%.

Take `CCOc1ccc(CN(CCc2ccc3c(c2)OCO3)Cc2cccc(Br)c2)cc1`: the inhibition is 11.9%.

For the molecule `Cc1nnc(NC(=O)c2cccn(Cc3ccccc3)c2=O)s1`, the inhibition is 1.15%.

For `Cc1cccc(OC(C)C(=O)NCC2(N(C)C)CCCCC2)c1C` (stereo not drawn), the inhibition came out at 7.67%.

Regarding `O=c1cccc2n1CC1CC2CN(C(c2ccccc2)c2sc3ncnn3c2O)C1` (stereo not drawn), the inhibition was active: 31.6%.

With `O=C(Nc1nc2ccccc2s1)c1cccn(Cc2ccccc2)c1=O`, the inhibition was -13.4%.

With `COc1ccccc1-n1c(-c2ccccc2)nc2ccccc2c1=O`, the inhibition was active: 39.8%.

As for `CCOC(=O)c1c(N)n(Cc2ccco2)c2nc3ccccc3nc12`, the inhibition was active: 30%.

For `CCOC(=O)C1CCCCC12C(C#N)=C(N)Oc1n[nH]c(C)c12` (stereo not drawn), the inhibition was active: 30.5%.

On to `C1=C(CCNCc2ccccc2)CCCC1`, for which the inhibition was active: 39.3%.

`Cc1ccc(CNC(=O)CCCn2c(=O)c3sccc3n(CC(=O)Nc3c(C)cccc3C)c2=O)cc1`: the inhibition was -23.6%.

In the case of `CCNc1cc(N2CCNCC2)ccc1[N+](=O)[O-]`, the inhibition was active: 35.3%.

As for `CN1C[C@H](CNC(=O)OCc2ccccc2)C[C@@H]2c3cccc4c3c(cn4C)C[C@H]21`, the inhibition was active: 77.7%.

In the case of `Cc1cccc(-n2c(/C=C\c3cccc(Br)c3)nc3ccccc3c2=O)c1`, the inhibition was -26.9%.

With `COc1ccc(C2CC(=O)Oc3c2c(=O)oc2ccccc32)c(OC)c1OC` (stereo not drawn), the inhibition is 13.4%.

As for `O=[N+]([O-])c1cccc(CN2CCN(Cc3ccc(Cl)cc3)CC2)c1`, the inhibition was active: 50.5%.

In the case of `CCOC(=O)C1(Cc2ccc(Cl)cc2)CCN(C(C)CCn2cccn2)CC1` (stereo not drawn), the inhibition was active: 77.6%.

Regarding `CN1CC=C(c2c[nH]c3ccccc23)CC1`, the inhibition was active: 74.7%.

For `COc1ccc(OC)c(CCNCc2c(C(=O)O)c(C)n(Cc3ccc(F)cc3Cl)c2C)c1`, the inhibition was -23.9%.

Turning to `CN1CCN(c2cc([N+](=O)[O-])ccc2Cl)CC1`, the inhibition is active: 69.4%.

As to `COc1ccc(NC(=O)CCc2nc(C3=CCN(Cc4cccc(C)c4)CC3)no2)c(OC)c1`, the inhibition was -13.2%.

`Cc1cc(OCC(=O)N2CCN(CCc3ccncc3)CC2)cc(C)c1Cl`: the inhibition is 12%.

With `Cc1cccc(Cn2cccc(C(=O)Nc3nc4ccccc4s3)c2=O)c1`, the inhibition was -1.29%.

Take `CCOC(=O)c1ccc(NC(=O)CSc2nc3c(cc2C#N)N2CCC3CC2)cc1`: the inhibition was -10.2%.

On to `Cc1ccsc1C(=O)C1CCCN(Cc2cccc(OCCO)c2)C1` (stereo not drawn), for which the inhibition was active: 51.9%.

For the molecule `COc1cccc(-n2c(/C=C/c3cccc(C)c3)nc3ccccc3c2=O)c1`, the inhibition was -6.2%.

Consider `CCCCCCN1CCN(c2ccc(Cl)cc2)CC1`, for which the inhibition is active: 50.9%.

For the molecule `Cc1cccc(-n2c(CC3C(=O)Nc4ccc(C)cc43)nc3ccccc3c2=O)c1` (stereo not drawn), the inhibition amounted to 20.2%.

`O=[N+]([O-])c1cccc(CN2CC=C(c3ccc(F)cc3)CC2)c1`: the inhibition is active: 72.6%.

As for `Cc1ccc(-n2c(/C=C/c3cccc4ccccc34)nc3ccccc3c2=O)cc1`, the inhibition is 24.1%.

In the case of `O=C(CCCN1CCC2(CC1)C(=O)NCN2c1ccccc1)c1ccc(F)cc1`, the inhibition is active: 71.3%.

Regarding `CC(C)C[C@H]1C(=O)N2CCC[C@H]2[C@]2(O)O[C@](NC(=O)[C@@H]3C=C4c5cccc6[nH]cc(c56)C[C@H]4N(C)C3)(C(C)C)C(=O)N12`, the inhibition was active: 72%.

In the case of `CCCCN(Cc1ccccc1)C1CCN(CCc2ccccc2)CC1`, the inhibition was active: 55.8%.

For the molecule `O=C(Nc1ccccc1C(F)(F)F)c1cccn(Cc2ccccc2)c1=O`, the inhibition is -1.99%.

Consider `NCCc1c[nH]c2ccc(F)cc12`, for which the inhibition was active: 94.7%.

Turning to `CC(=O)c1cccc(OCC(O)CN2CC=C(c3ccccc3)CC2)c1` (stereo not drawn), the inhibition is active: 80.5%.

`Cc1ccccc1-n1c(/C=C/c2ccccc2F)nc2ccccc2c1=O`: the inhibition was -7.85%.

For the molecule `O=C(COc1ccccc1[N+](=O)[O-])N1CCN(CCc2ccccn2)CC1`, the inhibition was found to be 2.45%.

Regarding `CCOC(=O)c1cncn1C(C)c1ccccc1` (stereo not drawn), the inhibition is active: 34.7%.

`N#Cc1cc2c(nc1SCC(=O)Nc1ccc(Cl)c(C(F)(F)F)c1)C1CCN2CC1`: the inhibition is -17.9%.
